Results: PubChem BioAssay AID624170 (National Center for Advancing Translational Sciences (NCATS), 2012)
The campaign covered roughly 410,000 compounds. About 850 (0.21%) were called active. Inconclusive means that the source gave no clear call. Such entries were picked first, then a sample of the others. The call rests on the fitted dose curve; in most records, active means well fitted inhibition curve with a large enough effect; inconclusive means small, poorly fitted or top-dose-only effect, or another doubt; inactive means no such curve, though single readings can be large or run the other way. Potencies of inconclusive entries are left out as doubtful fits.

target: Glutaminase kidney isoform, mitochondrial (Homo sapiens) (UniProt O94925); assay: qHTS for Inhibitors of Glutaminase (GLS); conditions: GLS enzymatic activity, qHTS titration; series mostly up to 45.5 µM
Chain of UniProt O94925 (O94925 whole entry, looked up, canonical isoform): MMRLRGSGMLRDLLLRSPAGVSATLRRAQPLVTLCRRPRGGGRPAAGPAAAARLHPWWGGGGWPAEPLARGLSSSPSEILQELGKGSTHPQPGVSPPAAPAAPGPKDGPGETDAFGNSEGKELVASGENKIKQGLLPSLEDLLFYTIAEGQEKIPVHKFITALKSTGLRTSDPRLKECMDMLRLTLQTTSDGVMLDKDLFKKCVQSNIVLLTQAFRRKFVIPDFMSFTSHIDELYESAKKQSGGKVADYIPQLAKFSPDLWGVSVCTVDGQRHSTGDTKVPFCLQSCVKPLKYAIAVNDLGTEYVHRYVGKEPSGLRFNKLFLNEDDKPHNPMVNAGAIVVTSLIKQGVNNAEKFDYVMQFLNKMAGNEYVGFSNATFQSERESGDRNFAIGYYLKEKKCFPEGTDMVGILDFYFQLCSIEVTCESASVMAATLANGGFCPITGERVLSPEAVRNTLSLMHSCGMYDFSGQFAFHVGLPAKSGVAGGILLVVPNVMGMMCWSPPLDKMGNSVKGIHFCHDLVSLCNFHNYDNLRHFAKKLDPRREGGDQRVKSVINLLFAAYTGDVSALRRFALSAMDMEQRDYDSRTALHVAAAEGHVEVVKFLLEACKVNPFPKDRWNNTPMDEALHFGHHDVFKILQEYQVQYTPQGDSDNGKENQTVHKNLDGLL
How it was run: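 Human kidney-isoform GLS in 45 mM KH2PO4 pH 8.2, 0.02% Tween-20, with compound, started with 1mM L-Glutamine (added stock). Glutamate oxidase/HRP/Amplex red coupled fluorescence read at start and after 30 min at RT.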
Potency means the concentration at half of the fitted maximal effect; tags describe the fitted curve by direction and shape.

Q: For Cc1ccc(-c2cc(C(=O)N/N=C/c3ccccc3O)n[nH]2)o1, which Potency is on record?
A: inactive

Q: How did the Potency turn out when CCCCOC(=O)Nc1ccc(S(=O)(=O)Nc2cc(C)nc(C)n2)cc1 was run?
A: inactive

Q: For CCOC(=O)Nc1ccc2c(c1)N(C(=O)CN1CCN3CCCC3C1)c1ccccc1CC2 (configuration not stated), which Potency is on record?
A: inactive

Q: With CC(NC(=O)COC(=O)C1CCN(c2ccc(C(F)(F)F)cn2)CC1)c1ccc(F)cc1 (configuration not stated) as the compound, how does the Potency read?
A: inactive

Q: For Cc1cc(-c2ccccc2)nc(N2CCN(c3ccccn3)CC2)n1, which Potency is on record?
A: inconclusive [inhibitor, single point]

Q: COc1ccc(/C=c2\sc3nc(-c4ccccc4OC)nn3c2=O)c(OC)c1 was tested. Which Potency did it give?
A: inconclusive [inhibitor, single point]

Q: COC(=O)Cc1c(O)ccn(CCc2c[nH]c3ccc(OC)cc23)c1=O was tested. Which Potency did it give?
A: inactive

Q: How did the Potency turn out when COc1ccc(C)cc1N1C(=N)/C(=C2/Nc3ccccc3S2)C(c2ccccc2)C1=O (configuration not stated) was run?
A: inactive

Q: CSc1nc(SCCO)c2sc3nc(-c4ccco4)c4c(c3c2n1)CC(C)(C)OC4 was tested. Which Potency did it give?
A: inconclusive [inhibitor, single point]

Q: With CCc1ccccc1NC(=O)Cn1nc(N2CCN(c3ccccc3OC)CC2)ccc1=O as the compound, how does the Potency read?
A: inactive

Q: With CC(C)[C@H](NC(=O)OCc1ccccc1)C(=O)OCC(=O)N1CCCCC1 as the compound, how does the Potency read?
A: inconclusive [inhibitor, partial curve]

Q: How did the Potency turn out when Cc1ccc(Cl)cc1NC(=O)Cn1c(=O)n(C(C)C)c(=O)c2oc3ccccc3c21 was run?
A: inconclusive [inhibitor, single point]

Q: For Cc1nc(S/C(=C\c2ccc(-c3ccc(C(=O)O)c(Cl)c3)o2)C(=O)O)n[nH]1, which Potency is on record?
A: active: 15.8 µM

Q: How did the Potency turn out when Cc1ccnc(Nc2nc(-c3ccc(O)c(O)c3)cs2)c1 was run?
A: inconclusive [inhibitor, single point]

Q: For CCOC(=O)c1cccc(NC(=O)N2CC=C(c3c[nH]c4ccccc34)CC2)c1, which Potency is on record?
A: inconclusive [inhibitor, partial curve, poor fit]

Q: C#CCOCCOCCOCCNc1nc(N2CCN(C(=O)CCCCCCCCCCNC(=O)[C@H](CCCCN)n3cc(CCO)nn3)CC2)nc(N2CCN(C(=O)CCCCCCCCCCNC(=O)[C@H](CCCN=C(N)N)n3cc(C[C@@H](C)CC)nn3)CC2)n1 was tested. Which Potency did it give?
A: inconclusive [inhibitor, single point]

Q: For O=C(Cn1c(=O)c(CNc2ccccc2)cc2cc3c(cc21)OCCO3)Nc1ccccc1Cl, which Potency is on record?
A: inactive

Q: Which Potency does the source give for CCn1c(C)nc2cc(C(=O)N/N=C/c3ccc(O)c(O)c3O)ccc21 here?
A: inconclusive [inhibitor, partial curve, poor fit]

Q: Cn1c(=O)c2c(nc(CN3CCN(c4ccccc4F)CC3)n2Cc2ccc(F)cc2)n(C)c1=O was tested. Which Potency did it give?
A: inactive

Q: For O=C(Nc1ccc(N2CCN(c3ccc(F)cc3)CC2)c(C(=O)O)c1)c1cccs1, which Potency is on record?
A: inconclusive [inhibitor, single point]

Q: Which Potency does the source give for O=C(O)c1ccccc1NS(=O)(=O)c1cccc(NS(=O)(=O)c2cc(Br)ccc2Br)c1 here?
A: inconclusive [inhibitor, partial curve]

Q: CC1(C)CC(=O)C(C=Nc2ccc3cn[nH]c3c2)=C(O)C1 was tested. Which Potency did it give?
A: inconclusive [inhibitor, partial curve, poor fit]

Q: COc1ccc(-c2c(C(F)(F)F)[nH]n3c(=O)cc(-c4ccccc4)nc23)cc1 was tested. Which Potency did it give?
A: inactive

Q: Which Potency does the source give for CC(=O)OCC1=C(C(=O)O)N2C(=O)C(NC(=O)Cc3ccccc3)C2SC1 (configuration not stated) here?
A: inconclusive [inhibitor, partial curve, poor fit]

Q: Cc1ccc(-n2c(CCc3ccccc3)n[nH]c2=S)cc1C was tested. Which Potency did it give?
A: inconclusive [inhibitor, single point]

Q: With C/C(=N\Nc1ncc(Cl)cc1Cl)c1ccc(N2CCOCC2)cc1 as the compound, how does the Potency read?
A: inconclusive [inhibitor, partial curve, poor fit]

Q: With COc1ccc(C(=O)Nc2ccc(OC)c([N+](=O)[O-])c2)cc1Br as the compound, how does the Potency read?
A: inactive

Q: CC(=O)c1ccc(NC(=O)c2cc(=O)[nH]c3ccccc23)cc1 was tested. Which Potency did it give?
A: inconclusive [inhibitor, partial curve, poor fit]

Q: Which Potency does the source give for Cc1ccc(Nc2nc3ccc(C(=O)c4ccccc4)cc3n3c(C)nnc23)c(C)c1 here?
A: inactive

Q: How did the Potency turn out when O=C(CN1C(=O)c2ccccc2S1(=O)=O)Nc1ncc(Cl)cc1Cl was run?
A: inactive

Q: With COc1ccccc1OCC(=O)Nc1nc(-c2ccc(S(=O)(=O)N3CCOCC3)cc2)cs1 as the compound, how does the Potency read?
A: inconclusive [inhibitor, partial curve, poor fit]

Q: CCN1CC(CN(C)Cc2cn(-c3ccc(C)cc3)nc2-c2ccc(F)cc2)CC1=O (configuration not stated) was tested. Which Potency did it give?
A: inactive

Q: How did the Potency turn out when CN1C(=O)C(CC(=O)Nc2ccc(F)cc2)N(NC(=O)c2cccc(F)c2)C1=S (configuration not stated) was run?
A: inconclusive [inhibitor, partial curve, poor fit]

Q: For COc1ccc(/C(C)=N/Nc2nc3ccccc3nc2C)cc1OC, which Potency is on record?
A: inconclusive [inhibitor, partial curve, poor fit]

Q: With Oc1ccc(/C=N/N(Cc2ccccc2)c2ccccc2)cc1 as the compound, how does the Potency read?
A: inconclusive [inhibitor, partial curve]

Q: For CCOC(=O)N1CCN(S(=O)(=O)c2ccc(C)cc2)CC1, which Potency is on record?
A: inactive

Q: With COc1cc(C2Nc3ccccc3NC3=C2C(=O)CC(c2ccc(OC)c(OC)c2)C3)ccc1O (configuration not stated) as the compound, how does the Potency read?
A: inconclusive [inhibitor, partial curve, poor fit]

Q: CCCn1c(SCc2nc(-c3ccc(OC)c(OC)c3)no2)nnc1-c1ccccc1 was tested. Which Potency did it give?
A: inactive

Q: With Cc1c(NC(=O)Nc2ccc([N+](=O)[O-])cc2)c(=O)n(-c2ccccc2)n1C as the compound, how does the Potency read?
A: inconclusive [inhibitor, single point]

Q: With COCCCNC(=O)/C(C#N)=C/c1ccc(OCC(=O)O)c(OC)c1 as the compound, how does the Potency read?
A: active: 10 µM

Q: With O=c1ccc2ccc(Oc3ccc([N+](=O)[O-])cc3Cl)cc2o1 as the compound, how does the Potency read?
A: inconclusive [inhibitor, partial curve, poor fit]

Q: Which Potency does the source give for Cc1cccc2sc(=S)[nH]c12 here?
A: inconclusive [inhibitor, single point]
